Data reported in PMC9911399, “Two distinct binding modes provide the RNA-binding protein RbFox with extraordinary sequence specificity”.
Where a chain is given by its changes, count along the chain named. The list shows a part of the results.

T1: RBFOX1 RRM (Homo sapiens, UniProt Q9NWB1 109-208)
T1 sequence: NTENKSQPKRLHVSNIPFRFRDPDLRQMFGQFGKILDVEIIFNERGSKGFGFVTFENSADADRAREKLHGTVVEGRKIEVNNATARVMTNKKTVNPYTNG

B1: GAAUAUU (DNA:RNA)
RNA: GGGAGACCGGAAUUCAGAUUGUCCGAAUAUUUUAAAUCCCGUCGUAGCCACCA
DNA 1: CAATCTGAATTCCGGTCTCCC
DNA 2: TGGTGGCTACGACGGGATT
B2: CCUGCGC (DNA:RNA)
RNA: GGGAGACCGGAAUUCAGAUUGUCCCCUGCGCUUAAAUCCCGUCGUAGCCACCA
DNA 1: CAATCTGAATTCCGGTCTCCC
DNA 2: TGGTGGCTACGACGGGATT
B3: GGUUCCA (DNA:RNA)
RNA: B2 RNA with C25G, C26G, G28U, G30C, C31A
DNA 1: CAATCTGAATTCCGGTCTCCC
DNA 2: TGGTGGCTACGACGGGATT
B4: GCGUUGG (DNA:RNA)
RNA: B2 RNA with C25G, U27G, G28U, C29U, C31G
DNA 1: CAATCTGAATTCCGGTCTCCC
DNA 2: TGGTGGCTACGACGGGATT
B5: CACUCGG (DNA:RNA)
RNA: B2 RNA with C26A, U27C, G28U, C31G
DNA 1: CAATCTGAATTCCGGTCTCCC
DNA 2: TGGTGGCTACGACGGGATT
B6: GAAUGUC (DNA:RNA)
RNA: B1 RNA with A29G, U31C
DNA 1: CAATCTGAATTCCGGTCTCCC
DNA 2: TGGTGGCTACGACGGGATT
B7: GAUUCCC (DNA:RNA)
RNA: B2 RNA with C25G, C26A, G28U, G30C
DNA 1: CAATCTGAATTCCGGTCTCCC
DNA 2: TGGTGGCTACGACGGGATT
B8: CCCGAUU (DNA:RNA)
RNA: B2 RNA with U27C, C29A, G30U, C31U
DNA 1: CAATCTGAATTCCGGTCTCCC
DNA 2: TGGTGGCTACGACGGGATT
B9: GCAUUCA (DNA:RNA)
RNA: B1 RNA with A26C, A29U, U30C, U31A
DNA 1: CAATCTGAATTCCGGTCTCCC
DNA 2: TGGTGGCTACGACGGGATT
B10: AGUUACA (DNA:RNA)
RNA: B1 RNA with G25A, A26G, A27U, U30C, U31A
DNA 1: CAATCTGAATTCCGGTCTCCC
DNA 2: TGGTGGCTACGACGGGATT
B11: CGUCGCU (DNA:RNA)
RNA: B2 RNA with C26G, G28C, C29G, G30C, C31U
DNA 1: CAATCTGAATTCCGGTCTCCC
DNA 2: TGGTGGCTACGACGGGATT
B12: UUCCCUC (DNA:RNA)
RNA: B2 RNA with C25U, C26U, U27C, G28C, G30U
DNA 1: CAATCTGAATTCCGGTCTCCC
DNA 2: TGGTGGCTACGACGGGATT
B13: GACAACA (DNA:RNA)
RNA: B1 RNA with A27C, U28A, U30C, U31A
DNA 1: CAATCTGAATTCCGGTCTCCC
DNA 2: TGGTGGCTACGACGGGATT
B14: UUCUGUC (DNA:RNA)
RNA: B1 RNA with G25U, A26U, A27C, A29G, U31C
DNA 1: CAATCTGAATTCCGGTCTCCC
DNA 2: TGGTGGCTACGACGGGATT
B15: GCCACGU (DNA:RNA)
RNA: B2 RNA with C25G, U27C, G28A, C31U
DNA 1: CAATCTGAATTCCGGTCTCCC
DNA 2: TGGTGGCTACGACGGGATT
B16: GAAGCUU (DNA:RNA)
RNA: B1 RNA with U28G, A29C
DNA 1: CAATCTGAATTCCGGTCTCCC
DNA 2: TGGTGGCTACGACGGGATT
B17: CAAUGAU (DNA:RNA)
RNA: B1 RNA with G25C, A29G, U30A
DNA 1: CAATCTGAATTCCGGTCTCCC
DNA 2: TGGTGGCTACGACGGGATT
B18: UUCCGAU (DNA:RNA)
RNA: B1 RNA with G25U, A26U, A27C, U28C, A29G, U30A
DNA 1: CAATCTGAATTCCGGTCTCCC
DNA 2: TGGTGGCTACGACGGGATT
B19: GCCGCGU (DNA:RNA)
RNA: B2 RNA with C25G, U27C, C31U
DNA 1: CAATCTGAATTCCGGTCTCCC
DNA 2: TGGTGGCTACGACGGGATT
B20: UAUUUUA (DNA:RNA)
RNA: B1 RNA with G25U, A27U, A29U, U31A
DNA 1: CAATCTGAATTCCGGTCTCCC
DNA 2: TGGTGGCTACGACGGGATT

target: T1, RBFOX1 RRM; assay: EMSA; HiTS-Eq, 1 nM pool, 10 min; buffer printed only for the single-RNA assays: 10 mM Tris pH 7.5, 150 mM NaCl, 3.4 mM EDTA, 0.001% NP-40, 30 C; settings: tags: His6 N-terminal (pET28a); label: 5' 32P
How it was run: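 Purified RbFox RRM (wild type or mutant) was equilibrated for 10 min in 50 µL with 1 nM of a 5′-radiolabelled pool of RNA with 7 randomized nucleotides, its flanks annealed to DNA oligonucleotides, across increasing protein concentrations. Free RNA was separated by 8% native PAGE, excised, reverse-transcribed, PCR-barcoded and sequenced on an Illumina HiSeq 2500. Relative association constants came from read-count changes of each variant against the control reaction, normalised to the cognate motif.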

| Binder | binding signal |
| --- | --- |
| B1 | 0.00452 KA relative to UGCAUGU |
| B2 | 0.0134 KA relative to UGCAUGU |
| B3 | 0.00477 KA relative to UGCAUGU |
| B4 | 0.0192 KA relative to UGCAUGU |
| B5 | 0.00726 KA relative to UGCAUGU |
| B6 | 0.0247 KA relative to UGCAUGU |
| B7 | 0.000323 KA relative to UGCAUGU |
| B8 | 0.00177 KA relative to UGCAUGU |
| B9 | 0.00789 KA relative to UGCAUGU |
| B10 | 0.00471 KA relative to UGCAUGU |
| B11 | 0.0092 KA relative to UGCAUGU |
| B12 | 0.00898 KA relative to UGCAUGU |
| B13 | 0.00142 KA relative to UGCAUGU |
| B14 | 0.0193 KA relative to UGCAUGU |
| B15 | 0.011 KA relative to UGCAUGU |
| B16 | 0.0107 KA relative to UGCAUGU |
| B17 | 0.00274 KA relative to UGCAUGU |
| B18 | 0.00897 KA relative to UGCAUGU |
| B19 | 0.0161 KA relative to UGCAUGU |
| B20 | 0.00705 KA relative to UGCAUGU |
